# From PubChem BioAssay AID463173 (ICCB-Longwood Screening Facility, Harvard Medical School, 2010)
# Out of some 52,000 compounds screened, about 1,700 (3.3%) were called active. Rule as the data show it: active = survival mostly below about 52% (no sharp cut-off); inactive = mostly above about 56%. The list shows a part of the results.
# Tested on: Wild type
# Test: growth inhibition of S. aureus wild type versus tarO mutant, primary screen, teichoic acid synthesis inhibitors, RN4220, OD600 (AID 463173)
# Conditions: S. aureus RN4220 wild type/DeltatarO growth, OD600, 18 h, stronger effect = lower value; concentration not given here unless noted
row,SMILES,survival
1,c1cc2c(cc1CN1CCNCC1)OCO2,inactive: 118%
2,COc1ccc(CC2C(=O)N(C)C(=O)N(C)C2=O)cc1,inactive: 112%
3,Cc1ccc(NC(=O)N(Cc2ccc3c(c2)OCO3)C2CCN(Cc3ccccc3)CC2)cc1Cl,inactive: 133%
4,CCOC(=O)C1=C(C)NC(C)=C2C(=O)Oc3ccccc3C12 (stereo not given),inactive: 108%
5,c1cc(CN2CCNCC2)ccn1,inactive: 107%
6,N#Cc1cc2c(nc1SCC(=O)Nc1ccc(F)c(Cl)c1)C1CCN2CC1,active: -2%
7,O=C(Nc1ccc(Br)cc1C(=O)c1ccccc1Cl)c1ccccc1F,inactive: 76%
8,COc1ccc(CCNCc2ccc3c(c2)n(C)c(=O)n3C)cc1,inactive: 84%
9,O=C1CC(c2ccc(F)cc2)c2c(c3ccccc3oc2=O)O1 (stereo not given),inactive: 67%
10,CCOC(=O)CC1=C(C(=O)OCC)C2(C(=O)N(C)c3ccccc32)C(C#N)=C(N)O1 (stereo not given),inactive: 83%
11,CN1C(=O)C(Cc2nc3ccccc3c(=O)n2-c2ccccc2)c2ccccc21 (stereo not given),inactive: 117%
12,CCOc1ccc(NC(=O)c2cccn(Cc3cccc(Cl)c3)c2=O)cc1,inactive: 93%
13,COc1ccc(NC(=O)CCc2nc(C3=CCN(Cc4cccc(Cl)c4)CC3)no2)cc1OC,inactive: 76%
14,Cc1oc(-c2ccccc2Cl)nc1CN1C(=O)CN=C(c2ccccc2)c2cc(Cl)ccc21,inactive: 82%
15,CCCOc1ccc(CCN)cc1Cl,inactive: 107%
16,CC(c1ccccc1F)n1cc(C(=O)NC2CCCC2)nn1 (stereo not given),inactive: 103%
17,Cc1ccc(-n2nc(C)c3c2NC(=O)CSC3c2ccc(O)cc2)cc1Cl (stereo not given),inactive: 91%
18,Clc1ccc(NCCN2CCCCCC2)nn1,inactive: 126%
19,O=c1c2ccccc2nc(/C=C/c2ccccc2O)n1-c1ccc(Br)cc1,inactive: 68%
20,COC1=CC23CCN(C)C(Cc4ccc(OC)c(O)c42)C3=CC1=O (stereo not given),inactive: 115%
21,CCCC12CN3CC(C)(CN(C1)C3c1ccccn1)C2=O (stereo not given),inactive: 86%
22,c1ccc2c(CCNC3CCNCC3)c[nH]c2c1,inactive: 96%

row,SMILES,survival
1,Cc1ccc(NC(=O)CN2C(=O)CN=C(c3ccccc3)c3ccccc32)c(C)c1,inactive: 84%
2,O=C(c1ccc2c(c1)N(Cc1ccc(F)cc1Cl)C(=O)c1ccccc1S2)N1CCC2(CC1)OCCO2,inactive: 78%
3,N=C1SCC(=O)N1Cc1ccccc1,inactive: 112%
4,O=c1c2ccccc2nc(-c2ccco2)n1-c1nccs1,inactive: 99%
5,CC(C)OC12Oc3ccccc3C=C1N1CCC2CC1 (stereo not given),inactive: 105%
6,CCCCc1nc2ccccc2c(=O)n1-c1cccc(OC)c1,inactive: 98%
7,Nc1c(C(=O)Nc2ccc(OC(F)(F)F)cc2)sc2nc3c(cc12)N1CCC3CC1,inactive: 167%
8,COc1cc(/C=C/c2nc3ccccc3c(=O)n2-c2ccc(Br)c(C)c2)ccc1O,inactive: 74%
9,O=C(Nc1ccc2c(c1)OCCO2)c1cccn(Cc2cccc([N+](=O)[O-])c2)c1=O,inactive: 78%
10,CC(C)NCc1ccc2c(c1)OCO2,inactive: 101%
11,N#Cc1cc([N+](=O)[O-])ccc1NC(=O)c1cccn(Cc2cccc(F)c2)c1=O,inactive: 124%
12,CSc1ccc(C(c2c(O)c3ccccc3oc2=O)c2c(C)n(C)n(-c3ccccc3)c2=O)cc1 (stereo not given),inactive: 112%
13,CN1CCN(c2csc3ccc(F)cc3c2=O)CC1,inactive: 68%
14,CC12CCC3C(CCC4CC(N)CCC43C)C1CCC2O (stereo not given),inactive: 122%
15,N#Cc1cc2c(nc1SCC(=O)Nc1cccc(F)c1)C1CCN2CC1,active: -3%
16,CCOc1ccc(-n2c(/C=C/c3ccccc3)nc3ccccc3c2=O)cc1,inactive: 136%
17,CSc1nc2ccccc2c(=O)n1-c1ccccc1C,inactive: 107%
18,O=C1CC(=O)N(c2ccccc2)C(=O)N1c1ccccc1,inactive: 111%
19,O=C(Nc1ccc2c(c1)OCO2)c1cccn(Cc2ccc(F)cc2)c1=O,inactive: 59%
20,Cn1c(=O)n(C)c2cc(CNCCc3ccccc3)ccc21,inactive: 99%
21,O=c1cccc2n1CC1CC2CN(c2ncnc3c2cnn3-c2ccc(Cl)cc2)C1 (stereo not given),inactive: 109%
22,Cc1ccccc1Cn1cccc(C(=O)Nc2cc(Cl)ccc2C#N)c1=O,inactive: 49%

row,SMILES,survival
1,O=C(Cc1ccccc1)Oc1cccc(-n2cnnn2)c1,inactive: 120%
2,COC(=O)c1cn(Cc2ccccc2C#N)c2ccccc12,inactive: 111%
3,Cn1cc(C=C(C#N)C#N)c2ccccc21,inactive: 114%
4,Cc1cc(NC(=O)c2cccn(Cc3cccc([N+](=O)[O-])c3)c2=O)no1,inactive: 89%
5,CCOc1ccc(CC2(CCc3ccncc3)C(=O)NC(=O)NC2=O)cc1,inactive: 96%
6,OCCCNc1c2c(nc3ccccc13)CCCC2,inactive: 99%
7,N#CC(C#N)=Cc1ccc(-c2ccccc2)o1,inactive: 123%
8,CCN1CCN(C(=O)COc2ccc(S(=O)(=O)N(C)Cc3ccccc3)cc2)CC1,inactive: 90%
9,CCOc1ccc2nc(NC(=O)c3cccn(Cc4ccccc4C)c3=O)sc2c1,inactive: 73%
10,CCC(=O)N1CC(=O)Nc2ccc(C)cc2C1c1ccc(F)cc1 (stereo not given),inactive: 77%
11,COc1ccc(CNCC(=O)N2CCC3(CC2)OCCO3)cc1,inactive: 107%
12,CCc1ccc(OCC(=O)N2CCN(CCc3ccccn3)CC2)cc1,inactive: 83%
13,CC1CC(=O)C2CCCCC2N1 (stereo not given),inactive: 100%
14,COc1ccc(-c2nc(CN3C(=O)CN=C(c4ccccc4)c4ccccc43)c(C)o2)cc1OC,inactive: 96%
15,Cc1cc(N2CCNCC2)nc2ccccc12,inactive: 94%
16,O=C1CN=C(c2ccccc2)c2cc(Cl)ccc2N1Cc1ccc(Cl)cc1,inactive: 50%
17,COc1ccccc1-n1c(/C=C/c2ccccc2)nc2ccccc2c1=O,inactive: 80%
18,CN(C)C(=O)Oc1ccnc2cc(Cl)ccc12,inactive: 108%
19,COc1ccc(-c2nn3c(=O)cc(CN4CCN(C(=O)COc5ccc(F)cc5)CC4)nc3s2)cc1,inactive: 68%
20,CCC(C)c1c(O)[nH]c(=S)[nH]c1=O (stereo not given),inactive: 121%
21,Cc1oc(-c2ccc(Cl)cc2)nc1CN1C(=O)CN=C(c2ccccc2)c2cc(Cl)ccc21,inactive: 73%
